Results are given in words; binding and its absence hold for the method and conditions named. In cells and extracts the contact can be indirect. Tags and fused reporters may be left off the sequences shown.
Molecular target: TDP43^219 (Val^219-TDP43^f), C-terminal fragment of human TDP43, amino acids 219 - 414, bearing N-terminal Val and a C-terminal FLAG tag (human) (UniProt Q13148)
Assay: co-IP; anti-TDP43 IP from the soluble fraction of BAG6-KO HEK293T cells co-expressing FLAG-tagged TDP43 fragment with exogenous BAG6 (and TRC35, UBL4a, RNF126); anti-FLAG immunoblot

B1: ubiquitin-like protein 4A (UBL4A), myc-FLAG-tagged (protein, UniProt P11441 1-157)
chain: MQLTVKALQGRECSLQVPEDELVSTLKQLVSEKLNVPVRQQRLLFKGKALADGKRLSDYSIGPNSKLNLVVKPLEKVLLEEGEAQRLADSPPPQVWQLISKVLARHFSAADASRVLEQLQRDYERSLSRLTLDDIERLASRFLHPEVTETMEKGFSK
binding: no binding
